Laboratory results as given in PubChem BioAssay AID1645882 (National Center for Advancing Translational Sciences (NCATS), 2021).
Screen size: about 16,000 compounds; about 120 (0.75%) were called active. Roughly 4% stayed inconclusive and do not appear here. The call rests on the fitted dose curve; in most records, active means well fitted inhibition curve with a large enough effect; inconclusive means small, poorly fitted or top-dose-only effect; inactive means no such curve, though single readings can be large or run the other way. This is one part of the list.

What follows are compounds tested against Rap guanine nucleotide exchange factor 3 (Homo sapiens) (UniProt O95398) (assay: Validation qHTS for antagonist of cAMP-regulated guanine nucleotide exchange factor 3 (EPAC1)). Details: EPAC1 Rap1B-BODIPY-GDP exchange, fluorescence; series mostly up to 150 µM; activity change, negative = inhibition: at the top concentration.
Chain of UniProt O95398 (O95398 whole entry, looked up): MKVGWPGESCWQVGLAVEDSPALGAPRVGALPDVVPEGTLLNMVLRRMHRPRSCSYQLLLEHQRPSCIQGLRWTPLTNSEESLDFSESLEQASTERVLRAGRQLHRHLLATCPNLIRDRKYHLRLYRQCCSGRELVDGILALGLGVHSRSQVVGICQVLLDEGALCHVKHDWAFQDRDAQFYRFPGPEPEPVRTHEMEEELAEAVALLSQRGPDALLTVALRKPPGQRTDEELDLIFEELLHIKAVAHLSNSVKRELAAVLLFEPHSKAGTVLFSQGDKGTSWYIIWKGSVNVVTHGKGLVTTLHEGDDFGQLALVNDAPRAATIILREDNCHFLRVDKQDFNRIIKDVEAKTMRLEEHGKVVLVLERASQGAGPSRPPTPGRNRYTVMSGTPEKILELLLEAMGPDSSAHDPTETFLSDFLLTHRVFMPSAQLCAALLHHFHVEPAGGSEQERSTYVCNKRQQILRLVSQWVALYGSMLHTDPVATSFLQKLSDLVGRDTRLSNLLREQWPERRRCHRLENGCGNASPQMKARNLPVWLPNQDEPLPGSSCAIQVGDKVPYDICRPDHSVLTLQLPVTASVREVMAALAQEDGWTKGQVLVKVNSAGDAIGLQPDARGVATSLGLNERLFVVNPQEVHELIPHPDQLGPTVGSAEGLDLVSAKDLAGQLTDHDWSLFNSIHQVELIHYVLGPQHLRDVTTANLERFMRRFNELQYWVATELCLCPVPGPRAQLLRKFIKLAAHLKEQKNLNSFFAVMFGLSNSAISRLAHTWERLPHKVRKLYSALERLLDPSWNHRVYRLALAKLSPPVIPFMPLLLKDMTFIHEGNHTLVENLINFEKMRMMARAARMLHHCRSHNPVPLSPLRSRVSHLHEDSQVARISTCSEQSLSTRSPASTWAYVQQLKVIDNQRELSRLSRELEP
From the text: Assay Provider (PI): Xiaodong Cheng Ph.D.
The University of Texas Medical Branch, […], TX
In multi-cellular eukaryotic organisms, the effects of cAMP are transduced by two ubiquitously-expressed intracellular cAMP receptors, the classic protein kinase A/cAMP-dependent protein kinase (PKA/cAPK) and the more recently discovered exchange protein directly activated by cAMP/cAMP-regulated guanine nucleotide exchange factor (EPAC/cAMP-GEF). Both PKA and EPAC are ubiquitously expressed in all tissues, and an increase in intracellular cAMP levels will lead to the activation of both PKA and EPAC. Therefore, careful dissections of the individual role and relative contribution of EPAC and PKA within the overall cAMP signaling in various model systems are critical for further elucidating the mechanism of cAMP signaling. To date no EPAC-specific antagonists and agonist, as well as isoform-specific agonists have been reported, and developing EPAC-specific pharmacological probes to determine the physiological functions that EPAC play in the overall cAMP-mediated signaling remains a major challenge within the research field. Furthermore, identified regulators of EPAC may lead to new mechanism-based therapeutic strategies specifically targeting the EPAC / cAMP-signaling components as EPAC has been implicated to play important roles in major human pathological conditions such as diabetes, heart disease, and cancer.
This qHTS will be used to screen the Molecular Libraries Small Molecule Repository (MLSMR) as a concentration-titration series using the NCGC unique quantitative screening (qHTS) platform to find activators for EPAC1. In addition, this assay will also be used as a counterscreen for the EPAC2 qHTS. This fluorescent based assay is developed and validated for EPAC1 that measures exchange using EPAC effector Rap1 complex with BODIPY-GDP, a GDP analog with a tethered fluorophores. Activators are identified by monitoring the change in fluorescence signal as the exchanged free BODIPY-GDP has a reduced fluorescence compared to Rap1-bound BODIPY-GDP. Increase in signal (activation) is the desired outcome for the EPAC1 agonist while no activity in this assay is desired for the EPAC2 agonist counterscreen.
[1] de Rooij, J., Zwartkruis, F. J., Verheijen, M. H., Cool, R. H., Nijman, S. M., Wittinghofer, A., and Bos, J.L. (1998) Nature 396, 474-477.
Briefly, three uL of reagents (100 nM EPAC1, 250 nM RAP1B-BODIPY-GDP, 50 uM GDP) were dispensed into a 1536-well Greiner black solid-bottom medium binding assay plate. Controls and test compounds (23 nL) were transferred to the plate via a Kalypsys pin tool equipped with a 1536-pin array. The plates were centrifuged at 1,000 rpm for 15 seconds followed by 5 minute incubation at room temperature. The assay plates were read at 5 minute intervals for 30 minutes in the ViewLux plate reader using 480nm excitation and 540nm emission filters. The results were normalized to the […] positive control ATA and DMSO.
Further: nearly all actives have a fitted effect of over 75% in size.

Activity change, negative = inhibition, inactive:
CC(C)OC(=O)C(C(=O)OC(C)C)=C1SC=CS1 -1.37%
CSCC[C@@H](N)C(=O)O -3.01%
N#Cc1cccc(NC(=O)N2CC3(CCN(C(=O)c4cccc(F)c4)CC3)C2)c1 -13.3%
O=C(c1ccc(F)cc1)C1CCN(CCCCc2ccccc2)CC1 12.9%
CC(NC(=O)c1ccco1)c1nnc2n1CCN(Cc1cccc(Cl)c1)CC2 (configuration not stated) 5.3%
CCOC(=O)C(C#N)=C(c1ccccc1)c1ccccc1 -1.48%
CS(=O)(=O)Nc1cc2occ(NC=O)c(=O)c2cc1Oc1ccccc1 41.3%
N[C@@H](CC(=O)O)C(=O)O
O=C(O)c1cc(-c2ccc(-c3c(-c4ccc5c(c4)OCO5)noc3-c3ccsc3)cc2)nc2ccccc12 20.3%
CCOc1cccc(CN2CCC(n3cc(C(=O)N4CCCCC4)nn3)CC2)c1O 17.1%
O=C(NCC1Cc2cccc(-c3cnccn3)c2O1)c1ccc(F)c(Cl)c1 (configuration not stated) 11.6%
O=C1NCCN1c1ncc([N+](=O)[O-])s1 -11.8% [at 75.8 µM]
C[Se]CC[C@H](N)C(=O)O 17.2%
O=C(/C=C(\O)c1ccccc1)c1ccccc1O -18.9%
COc1ccc(-c2nc3cc(C)ccc3cc2CN(C(=O)c2cc(C)nn2C)C2CC2)cc1OC -5.62%
O=C(O)C1=C[C@@H](O)[C@@H](O)[C@H](O)C1 5.29%
O=S(=O)(c1ccccc1)N1CCC2(CCN(Cc3nccs3)CC2)CC1 13.1%
C1N2CN3CN1CN(C2)C3
COC(=O)[C@@H](CC(C)C)N(Cc1ccccc1)S(=O)(=O)N(Cc1ccccc1)[C@@H](CC(C)C)C(=O)OC -27.9%
CC(=O)NCCNc1nc(-c2ccc3c(c2)OCO3)nc2ccccc12 8.65%
Cc1nc2cnc(N3CCOCC3)nc2n(Cc2ccc(F)cc2)c1=O 16%
COCC(=O)N1CCC[C@@]2(CCN(c3ncccn3)C2)C1 27.5%
CC(C)[C@H]1CC[C@@H](C)C[C@H]1O 11%
COc1ccc(Oc2ncc3nc(CCc4ccccc4)c(=O)n(C)c3n2)cc1 3.05%
COc1ncc2nc(-c3ccc(Cl)cc3)c(=O)n(-c3ccccc3)c2n1 14.6%
CC(=O)N1CCC[C@@]2(CCN(C(=O)Nc3ccccc3)C2)C1 7.87%
CC(=O)NCCNc1ncncc1-c1ccccc1CN(C)C -2.71%
O=C(O)[C@H]1CN(CCCP(=O)(O)O)CCN1
CCC1CN(CCNC(=O)C2CCCCN2C)Cc2cc(OC)ccc2O1 (configuration not stated) 16.1%
COc1ccc2[nH]c3c(c2c1)CCNC3=O 12%
COc1ccc(Oc2ncc3nc(-c4cccc(C#N)c4)c(=O)n(CCC#N)c3n2)cc1 11.3%
O=c1ccc2cc3ccoc3cc2o1 17.6%
